Experimental data published in PMC10585003.
These are yes or no findings as the source states them, for the method shown. In cells and extracts the contact can be indirect. Some entries that bind do so weakly or less than the wild type. Sequences can lack the tags named with a protein.

The chains behind the UniProt entries cited, without tags or fusion partners. Where a name states a change or a piece, a line headed by the entry shows the natural chain unless it says otherwise. A line that says so, or that is headed by a name, gives the form on record, which may keep a tag or linker. Residues count along the entry.
UniProt P31749: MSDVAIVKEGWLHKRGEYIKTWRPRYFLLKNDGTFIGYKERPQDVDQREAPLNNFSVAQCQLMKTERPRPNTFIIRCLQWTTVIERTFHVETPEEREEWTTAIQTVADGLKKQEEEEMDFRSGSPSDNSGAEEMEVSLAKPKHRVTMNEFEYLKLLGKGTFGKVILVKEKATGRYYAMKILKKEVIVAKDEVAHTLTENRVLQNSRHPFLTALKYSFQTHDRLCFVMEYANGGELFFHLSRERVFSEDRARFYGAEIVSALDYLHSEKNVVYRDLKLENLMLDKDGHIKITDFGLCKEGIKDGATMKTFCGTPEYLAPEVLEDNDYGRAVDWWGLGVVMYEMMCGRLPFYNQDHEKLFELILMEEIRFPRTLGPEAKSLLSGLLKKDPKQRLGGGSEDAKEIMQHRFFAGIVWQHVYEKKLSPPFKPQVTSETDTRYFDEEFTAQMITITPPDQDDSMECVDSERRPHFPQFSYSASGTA
AKT1 lacking the PH domain, HA-tagged (pCDNA3-HA-AKT1-aa120-433): residues 120-433 of P31749
AKT1Δ111–126-HA (P31749, form named): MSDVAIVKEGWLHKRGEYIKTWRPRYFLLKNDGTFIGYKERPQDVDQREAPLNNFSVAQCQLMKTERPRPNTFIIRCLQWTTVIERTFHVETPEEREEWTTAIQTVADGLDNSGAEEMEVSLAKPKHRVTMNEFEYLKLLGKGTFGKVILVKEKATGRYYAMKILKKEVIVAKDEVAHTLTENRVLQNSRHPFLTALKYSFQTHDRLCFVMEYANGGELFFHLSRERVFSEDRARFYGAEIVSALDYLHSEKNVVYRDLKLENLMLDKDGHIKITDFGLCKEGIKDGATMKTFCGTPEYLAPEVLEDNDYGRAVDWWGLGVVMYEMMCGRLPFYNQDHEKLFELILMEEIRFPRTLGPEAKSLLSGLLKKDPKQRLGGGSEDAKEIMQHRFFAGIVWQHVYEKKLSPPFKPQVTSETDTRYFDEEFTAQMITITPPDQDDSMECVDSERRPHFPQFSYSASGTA
UniProt P31751: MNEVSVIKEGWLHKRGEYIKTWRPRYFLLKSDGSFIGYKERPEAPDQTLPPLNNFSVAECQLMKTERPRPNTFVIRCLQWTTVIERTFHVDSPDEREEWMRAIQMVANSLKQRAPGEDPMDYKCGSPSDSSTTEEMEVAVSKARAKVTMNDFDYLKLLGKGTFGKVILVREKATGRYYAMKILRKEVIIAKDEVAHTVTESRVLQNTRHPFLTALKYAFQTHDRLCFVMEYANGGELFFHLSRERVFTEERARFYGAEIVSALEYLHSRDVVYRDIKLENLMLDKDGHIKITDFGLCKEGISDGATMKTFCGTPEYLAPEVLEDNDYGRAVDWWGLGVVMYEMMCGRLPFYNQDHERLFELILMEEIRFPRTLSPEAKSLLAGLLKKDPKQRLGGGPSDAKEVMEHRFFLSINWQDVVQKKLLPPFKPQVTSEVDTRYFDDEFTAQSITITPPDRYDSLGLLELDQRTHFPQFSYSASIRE
UniProt Q9Y243: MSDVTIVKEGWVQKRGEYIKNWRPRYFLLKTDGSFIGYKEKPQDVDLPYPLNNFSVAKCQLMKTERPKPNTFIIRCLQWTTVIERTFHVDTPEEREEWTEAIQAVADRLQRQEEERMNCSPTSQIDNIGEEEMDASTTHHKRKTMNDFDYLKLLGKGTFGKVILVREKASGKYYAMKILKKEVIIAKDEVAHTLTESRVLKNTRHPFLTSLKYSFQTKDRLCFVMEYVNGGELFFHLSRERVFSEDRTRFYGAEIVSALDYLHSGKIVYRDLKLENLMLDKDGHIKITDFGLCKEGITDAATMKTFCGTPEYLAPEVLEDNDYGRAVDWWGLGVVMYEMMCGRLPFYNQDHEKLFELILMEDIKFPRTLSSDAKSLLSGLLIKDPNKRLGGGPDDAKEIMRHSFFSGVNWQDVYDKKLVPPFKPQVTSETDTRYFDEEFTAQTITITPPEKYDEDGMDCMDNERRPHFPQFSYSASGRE

T1: KSHV viral protein kinase (vPK), wild type, V5-tagged (Kaposi's sarcoma-associated herpesvirus (KSHV)) (UniProt F5HGH5)
T1 sequence: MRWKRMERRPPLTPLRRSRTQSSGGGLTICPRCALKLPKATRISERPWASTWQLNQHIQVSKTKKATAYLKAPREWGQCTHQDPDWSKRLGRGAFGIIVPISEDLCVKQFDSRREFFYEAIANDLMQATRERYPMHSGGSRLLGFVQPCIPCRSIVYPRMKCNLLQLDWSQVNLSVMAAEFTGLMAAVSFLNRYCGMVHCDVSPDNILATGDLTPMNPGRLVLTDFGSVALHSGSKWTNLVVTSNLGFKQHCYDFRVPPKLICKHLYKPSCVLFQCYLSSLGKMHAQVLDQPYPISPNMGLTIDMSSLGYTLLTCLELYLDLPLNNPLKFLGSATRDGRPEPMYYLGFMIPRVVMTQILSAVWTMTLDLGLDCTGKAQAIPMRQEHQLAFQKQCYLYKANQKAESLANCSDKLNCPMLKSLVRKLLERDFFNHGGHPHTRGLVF

B1: KSHV viral protein kinase (vPK), wild type, V5-tagged (protein, UniProt F5HGH5 1-444)
chain: T1 sequence

What was measured:
Experiment in all cases: co-IP; HEK293T cells transfected with HA- and V5-tagged plasmids individually or together; lysed in ice-cold RIPA buffer with protease inhibitors; lysates incubated with anti-HA or anti-V5 beads overnight at 4 °C, washed four times with RIPA; Western blot with anti-V5 HRP or anti-HA HRP
[1] = target: T1, KSHV viral protein kinase (vPK), wild type, V5-tagged (Kaposi's sarcoma-associated herpesvirus (KSHV))
[2] = target: AKT1 lacking the PH domain, HA-tagged (pCDNA3-HA-AKT1-aa120-433) (UniProt P31749)
[3] = target: AKT1, wild type, HA-tagged (UniProt P31749)
AKT2, HA-tagged = AKT2, HA-tagged (UniProt P31751)
AKT3, HA-tagged = AKT3, HA-tagged (UniProt Q9Y243)

| Molecule | binding [1] | binding [2] | binding [3] | binding (AKT2, HA-tagged) | binding (AKT3, HA-tagged) |
| --- | --- | --- | --- | --- | --- |
| AKT1Δ111–126-HA (from UniProt P31749 1-480) | no binding | – | – | – | – |
| AKT1, wild type, HA-tagged (from UniProt P31749 1-480) | binds | – | – | – | – |
| B1 | – | no binding | binds | no binding | no binding |
